Assays:
[1] = target: T1, endogenously expressed extracellular ROR-1 protein on JeKo-1 (Homo sapiens, UniProt Q01973); experiment: Cell binding saturation assay, JeKo-1 (flow cytometry); conditions: FIGS. 27A-27B
T1 construct: endogenous in cells; host or cells: JeKo-1
Experimental: Cells were washed, stained with secondary antibody and cell binding saturation was detected by flow cytometry and reported as mean fluorescent intensity (MFI).
A cell binding saturation assay was developed to evaluate how well the anti-ROR-1 antibodies developed in Example 22 bound to endogenously expressed extracellular ROR-1 protein on cell lines. […] Briefly, two ROR-1 positive cell lines, JeKo-1 and MDA-MB-468, were incubated in a titration series concentration of each antibody construct. Cells were then washed and subjected to secondary antibody staining and detection by flow cytometry. Mean fluorescence (MFI) was determined by analysis on cytometer software. […] (See FIGS. 27A-27B).

[2] = target: T2, Mouse ROR1 - His (Mus musculus, UniProt Q9Z139); experiment: SPR binding to Mouse ROR1 - His
T2 construct: His
T2 sequence (Q9Z139 30-937): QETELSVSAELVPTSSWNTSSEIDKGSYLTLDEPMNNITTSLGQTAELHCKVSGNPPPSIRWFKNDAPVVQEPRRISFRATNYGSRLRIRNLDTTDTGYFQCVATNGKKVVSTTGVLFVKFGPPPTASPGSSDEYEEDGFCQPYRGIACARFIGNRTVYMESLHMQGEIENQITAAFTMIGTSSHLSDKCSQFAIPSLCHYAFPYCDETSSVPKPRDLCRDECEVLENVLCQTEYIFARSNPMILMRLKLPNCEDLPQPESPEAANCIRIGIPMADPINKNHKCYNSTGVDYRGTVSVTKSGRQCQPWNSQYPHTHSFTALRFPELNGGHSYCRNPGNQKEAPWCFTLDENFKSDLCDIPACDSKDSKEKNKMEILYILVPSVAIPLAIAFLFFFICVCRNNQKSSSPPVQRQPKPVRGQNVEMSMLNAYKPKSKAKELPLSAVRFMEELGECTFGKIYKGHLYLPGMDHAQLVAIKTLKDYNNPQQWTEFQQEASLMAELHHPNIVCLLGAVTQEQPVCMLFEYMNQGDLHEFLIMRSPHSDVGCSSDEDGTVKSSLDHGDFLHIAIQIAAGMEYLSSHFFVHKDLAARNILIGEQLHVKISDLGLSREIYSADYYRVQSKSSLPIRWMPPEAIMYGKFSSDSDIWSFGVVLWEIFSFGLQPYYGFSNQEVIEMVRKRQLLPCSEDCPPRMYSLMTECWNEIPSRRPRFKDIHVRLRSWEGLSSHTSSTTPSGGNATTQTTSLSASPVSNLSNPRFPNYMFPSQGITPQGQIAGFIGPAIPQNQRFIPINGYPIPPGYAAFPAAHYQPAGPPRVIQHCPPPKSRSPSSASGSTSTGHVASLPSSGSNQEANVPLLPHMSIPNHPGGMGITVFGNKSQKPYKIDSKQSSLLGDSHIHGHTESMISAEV
Experimental: (§1) An initial assessment of antibody developability was performed by AC-SINS to evaluate the potential for self-interaction (FIG. 28).

[3] = target: T3, Hu/Cy/Rh ROR1 - His (Homo sapiens, UniProt Q01973); experiment: SPR binding to Hu/Cy/Rh ROR1 - His; parameters: species or system Human/Cyno/Rhesus
T3 construct: His
Experimental: In these experiments 10 ug/ml of purified clonal protein of Hu/Cy/Rh ROR1-His was covalently coupled to the HC30M chip. Individual dilutions of each antibody at 10 μg/mL were injected over the chip and binding was evaluated by Carterra SPR.
as §1

B1: ATX-P-885: anti-ROR-1 monoclonal antibody developed herein (antibody)
heavy: QVQLQQWGAGLLKPSETLSLTCAVYGGSFSGYYWSWIRQPPGKGLEWIGEINHSGSTNYNPSLKSRVTISVDTSKNQFSLKLSSVTAADTAVYYCAREGVYEDYWGQGTLVTVSSASTKGPSVFPLAPSSKSTSGGTAALGCLVKDYFPEPVTVSWNSGALTSGVHTFPAVLQSSGLYSLSSVVTVPSSSLGTQTYICNVNHKPSNTKVDKRV[human IgG1 Fc not shown]
light: EIVLTQSPATLSLSPGERATLSCRASQSVSNYLAWYQQKPGQAPRLLIYDAYNRATGIPARFSGSGSGTDFTLTISSLEPEDFAVYYCQQRSNWPLTFGQGTRLEIKRTVAAPSVFIFPPSDEQLKSGTASVVCLLNNFYPREAKVQWKVDNALQSGNSQESVTEQDSKDSTYSLSSTLTLSKADYEKHKVYACEVTHQGLSSPVTKSFNRGEC
Question: B1 was tested. Which “cell binding saturation compared to UC-961” value [1] did it give?
Answer: comparable to the cell binding saturation for UC-961

Question: And the “concentration needed to achieve binding saturation compared to UC-961” value [1]?
Answer: improved

Question: And the “Rmax (RU)” value [2]?
Answer: 73.5 RU

Question: And the “ka” value [2]?
Answer: 29200 M⁻¹ s⁻¹

Question: And the “kd” value [2]?
Answer: 0.00132 s⁻¹

Question: What about the “Rmax (RU)” value [3] of the same molecule?
Answer: 341.6 RU

Question: And the “ka” value [3]?
Answer: 270000 M⁻¹ s⁻¹

Question: And the “kd” value [3]?
Answer: 0.00295 s⁻¹

— US20260021193A1, “IMMUNOCONJUGATES AND METHODS” (Immunome, Inc., priority 2022, published 2026)
